# Experimental data as given in the supplement of paper PMC8728848.
# The other results are listed elsewhere or left out.
# B1: Langerin (Homo sapiens), Q9UJ71 (protein)
# chain: STLNAQIPELKSDLEKASALNTKIRALQGSLENMSKLLKRQNDILQVVSQGWKYFKGNFYYFSLIPKTWYSAEQFCVSRNSHLTSVTSESEQEFLYKTAGGLIYWIGLTKAGMEGDWSWVDDTPFNKVQSARFWIPGEPNDAGNNEHCGNIKAPSLQAWNDAPCDITFLFICKRPYVPSEP
# Experiments:
# Assay in all cases: glycan array binding signal (z-score within array); higher = stronger binding
# Details in all cases: glycan notation: IUPAC condensed, linker removed; mutation: N288D, K313I
# [1] = biological target: Fuc(a1-2)Gal6S(b1-3)GlcNAc
# How it was run: (§1)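 Glycan array data came from 3228 arrays in the Consortium for Functional Glycomics database, and only arrays with an available protein sequence were kept. Glycan names were put into IUPAC-condensed notation, and columns mapping to the same glycan were averaged. The binding signal is a within-array Z-score, averaged across arrays of one protein sequence run at different concentrations or buffers and across linkers. A negative Z-score can be read as non-binding.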
# [2] = biological target: Fuc(a1-2)Gal6S(b1-3)GlcNAc6S
# How it was run: as §1
# Fuc(a1-2)Gal6S(b1-4)Glc = biological target: Fuc(a1-2)Gal6S(b1-4)Glc
# How it was run: as §1
# [3] = biological target: Fuc(a1-2)Gal6S(b1-4)Glc6S
# How it was run: as §1
# Fuc(a1-2)[Gal(a1-3)]Gal = biological target: Fuc(a1-2)[Gal(a1-3)]Gal
# How it was run: as §1
# [4] = biological target: Fuc(a1-2)[Gal(a1-3)]Gal(b1-3)GalNAc
# How it was run: as §1
# [5] = biological target: Fuc(a1-2)[Gal(a1-3)]Gal(b1-3)GalNAc(b1-3)Gal(a1-4)Gal(b1-4)Glc
# How it was run: as §1
# [6] = biological target: Fuc(a1-2)[Gal(a1-3)]Gal(b1-3)GlcNAc
# How it was run: as §1
# [7] = biological target: Fuc(a1-2)[Gal(a1-3)]Gal(b1-3)GlcNAc(b1-2)Man(a1-3)[Fuc(a1-2)[Gal(a1-3)]Gal(b1-3)GlcNAc(b1-2)Man(a1-6)]Man(b1-4)GlcNAc(b1-4)GlcNAc
# How it was run: as §1
# [8] = biological target: Fuc(a1-2)[Gal(a1-3)]Gal(b1-3)GlcNAc(b1-2)Man(a1-3)[Fuc(a1-2)[Gal(a1-3)]Gal(b1-3)GlcNAc(b1-2)Man(a1-6)]Man(b1-4)GlcNAc(b1-4)[Fuc(a1-6)]GlcNAc
# How it was run: as §1
# [9] = biological target: Fuc(a1-2)[Gal(a1-3)]Gal(b1-3)GlcNAc(b1-3)GalNAc
# How it was run: as §1
# [10] = biological target: Fuc(a1-2)[Gal(a1-3)]Gal(b1-3)GlcNAc(b1-6)GalNAc
# How it was run: as §1
# [11] = biological target: Fuc(a1-2)[Gal(a1-3)]Gal(b1-4)Glc
# How it was run: as §1
# [12] = biological target: Fuc(a1-2)[Gal(a1-3)]Gal(b1-4)GlcNAc
# How it was run: as §1
# [13] = biological target: Fuc(a1-2)[Gal(a1-3)]Gal(b1-4)GlcNAc(b1-2)Man
# How it was run: as §1
# [14] = biological target: Fuc(a1-2)[Gal(a1-3)]Gal(b1-4)GlcNAc(b1-2)Man(a1-3)[Fuc(a1-2)[Gal(a1-3)]Gal(b1-4)GlcNAc(b1-2)Man(a1-6)]Man(b1-4)GlcNAc(b1-4)GlcNAc
# How it was run: as §1
# [15] = biological target: Fuc(a1-2)[Gal(a1-3)]Gal(b1-4)GlcNAc(b1-2)Man(a1-3)[Fuc(a1-2)[Gal(a1-3)]Gal(b1-4)GlcNAc(b1-2)Man(a1-6)]Man(b1-4)GlcNAc(b1-4)[Fuc(a1-6)]GlcNAc
# How it was run: as §1
# [16] = biological target: Fuc(a1-2)[Gal(a1-3)]Gal(b1-4)GlcNAc(b1-3)GalNAc
# How it was run: as §1
# [17] = biological target: Fuc(a1-2)[Gal(a1-3)]Gal(b1-4)GlcNAc(b1-3)[Fuc(a1-2)[Gal(a1-3)]Gal(b1-4)GlcNAc(b1-6)]GalNAc
# How it was run: as §1
# [18] = biological target: Fuc(a1-2)[Gal(a1-3)]Gal(b1-4)GlcNAc(b1-6)GalNAc
# How it was run: as §1
# [19] = biological target: Fuc(a1-2)[Gal(a1-3)]Gal(b1-4)[Fuc(a1-3)]Glc
# How it was run: as §1
# [20] = biological target: Fuc(a1-2)[Gal(a1-3)]Gal(b1-4)[Fuc(a1-3)]GlcNAc
# How it was run: as §1
# [21] = biological target: Fuc(a1-2)[Gal(a1-3)]Gal(b1-4)[Fuc(a1-3)]GlcNAc(b1-3)GalNAc
# How it was run: as §1
# [22] = biological target: Fuc(a1-2)[Gal(a1-4)]Gal(b1-4)GlcNAc
# How it was run: as §1
# [23] = biological target: Fuc(a1-2)[GalNAc(a1-3)]Gal
# How it was run: as §1
# [24] = biological target: Fuc(a1-2)[GalNAc(a1-3)]Gal(b1-3)GalNAc(a1-3)[Fuc(a1-2)]Gal(b1-4)GlcNAc
# How it was run: as §1
# [25] = biological target: Fuc(a1-2)[GalNAc(a1-3)]Gal(b1-3)GalNAc(b1-3)Gal(a1-4)Gal(b1-4)Glc
# How it was run: as §1
# [26] = biological target: Fuc(a1-2)[GalNAc(a1-3)]Gal(b1-3)GlcNAc
# How it was run: as §1
# [27] = biological target: Fuc(a1-2)[GalNAc(a1-3)]Gal(b1-3)GlcNAc(b1-2)Man(a1-3)[Fuc(a1-2)[GalNAc(a1-3)]Gal(b1-3)GlcNAc(b1-2)Man(a1-6)]Man(b1-4)GlcNAc(b1-4)GlcNAc
# How it was run: as §1
# [28] = biological target: Fuc(a1-2)[GalNAc(a1-3)]Gal(b1-3)GlcNAc(b1-2)Man(a1-3)[Fuc(a1-2)[GalNAc(a1-3)]Gal(b1-3)GlcNAc(b1-2)Man(a1-6)]Man(b1-4)GlcNAc(b1-4)[Fuc(a1-6)]GlcNAc
# How it was run: as §1
# [29] = biological target: Fuc(a1-2)[GalNAc(a1-3)]Gal(b1-3)GlcNAc(b1-3)GalNAc
# How it was run: as §1
# [30] = biological target: Fuc(a1-2)[GalNAc(a1-3)]Gal(b1-3)GlcNAc(b1-6)GalNAc
# How it was run: as §1
# [31] = biological target: Fuc(a1-2)[GalNAc(a1-3)]Gal(b1-4)Glc
# How it was run: as §1
# [32] = biological target: Fuc(a1-2)[GalNAc(a1-3)]Gal(b1-4)GlcNAc
# How it was run: as §1
# [33] = biological target: Fuc(a1-2)[GalNAc(a1-3)]Gal(b1-4)GlcNAc(b1-2)Man
# How it was run: as §1
# [34] = biological target: Fuc(a1-2)[GalNAc(a1-3)]Gal(b1-4)GlcNAc(b1-2)Man(a1-3)[Fuc(a1-2)[GalNAc(a1-3)]Gal(b1-4)GlcNAc(b1-2)Man(a1-6)]Man(b1-4)GlcNAc(b1-4)GlcNAc
# How it was run: as §1
# [35] = biological target: Fuc(a1-2)[GalNAc(a1-3)]Gal(b1-4)GlcNAc(b1-2)Man(a1-3)[Fuc(a1-2)[GalNAc(a1-3)]Gal(b1-4)GlcNAc(b1-2)Man(a1-6)]Man(b1-4)GlcNAc(b1-4)[Fuc(a1-6)]GlcNAc
# How it was run: as §1
# [36] = biological target: Fuc(a1-2)[GalNAc(a1-3)]Gal(b1-4)GlcNAc(b1-3)Gal(b1-4)GlcNAc
# How it was run: as §1
# [37] = biological target: Fuc(a1-2)[GalNAc(a1-3)]Gal(b1-4)GlcNAc(b1-3)Gal(b1-4)GlcNAc(b1-3)Gal(b1-4)GlcNAc
# How it was run: as §1
# [38] = biological target: Fuc(a1-2)[GalNAc(a1-3)]Gal(b1-4)GlcNAc(b1-3)GalNAc
# How it was run: as §1
# [39] = biological target: Fuc(a1-2)[GalNAc(a1-3)]Gal(b1-4)GlcNAc(b1-3)[Fuc(a1-2)[GalNAc(a1-3)]Gal(b1-4)GlcNAc(b1-6)]GalNAc
# How it was run: as §1
# [40] = biological target: Fuc(a1-2)[GalNAc(a1-3)]Gal(b1-4)GlcNAc(b1-6)GalNAc
# How it was run: as §1
# [41] = biological target: Fuc(a1-2)[GalNAc(a1-3)]Gal(b1-4)[Fuc(a1-3)]GlcNAc
# How it was run: as §1
# [42] = biological target: Fuc(a1-2)[GalNAc(a1-3)]Gal(b1-4)[Fuc(a1-3)]GlcNAc(b1-3)GalNAc
# How it was run: as §1
# [43] = biological target: Fuc(a1-2)[GalNAc(a1-4)]Gal(b1-4)GlcNAc
# How it was run: as §1
binder,measurement,setting,value
B1,glycan array binding signal (z-score),[1],-0.321
same,glycan array binding signal (z-score),[2],0.09
same,glycan array binding signal (z-score),Fuc(a1-2)Gal6S(b1-4)Glc,0.114
same,glycan array binding signal (z-score),[3],-0.227
same,glycan array binding signal (z-score),Fuc(a1-2)[Gal(a1-3)]Gal,1.32
same,glycan array binding signal (z-score),[4],-0.256
same,glycan array binding signal (z-score),[5],-0.347
same,glycan array binding signal (z-score),[6],-0.252
same,glycan array binding signal (z-score),[7],-0.237
same,glycan array binding signal (z-score),[8],0.837
same,glycan array binding signal (z-score),[9],-0.166
same,glycan array binding signal (z-score),[10],-0.26
same,glycan array binding signal (z-score),[11],-0.194
same,glycan array binding signal (z-score),[12],-0.31
same,glycan array binding signal (z-score),[13],-0.289
same,glycan array binding signal (z-score),[14],-0.167
same,glycan array binding signal (z-score),[15],0.285
same,glycan array binding signal (z-score),[16],-0.034
same,glycan array binding signal (z-score),[17],-0.12
same,glycan array binding signal (z-score),[18],-0.17
same,glycan array binding signal (z-score),[19],-0.106
same,glycan array binding signal (z-score),[20],-0.073
same,glycan array binding signal (z-score),[21],-0.028
same,glycan array binding signal (z-score),[22],-0.02
same,glycan array binding signal (z-score),[23],0.334
same,glycan array binding signal (z-score),[24],-0.188
same,glycan array binding signal (z-score),[25],-0.197
same,glycan array binding signal (z-score),[26],-0.137
same,glycan array binding signal (z-score),[27],-0.253
same,glycan array binding signal (z-score),[28],0.337
same,glycan array binding signal (z-score),[29],0.093
same,glycan array binding signal (z-score),[30],0.089
same,glycan array binding signal (z-score),[31],-0.304
same,glycan array binding signal (z-score),[32],-0.27
same,glycan array binding signal (z-score),[33],-0.249
same,glycan array binding signal (z-score),[34],-0.017
same,glycan array binding signal (z-score),[35],0.04
same,glycan array binding signal (z-score),[36],-0.202
same,glycan array binding signal (z-score),[37],-0.095
same,glycan array binding signal (z-score),[38],-0.041
same,glycan array binding signal (z-score),[39],0.02
same,glycan array binding signal (z-score),[40],-0.206
same,glycan array binding signal (z-score),[41],0.025
same,glycan array binding signal (z-score),[42],1.92
same,glycan array binding signal (z-score),[43],-0.285
